Laboratory results reported in patent US20240228612A1 (SICHUAN KELUN BIOTECH BIOPHARMACEUTICAL, published 2024).
Residue numbers refer to the chain shown, from its start.

T1: human Nectin-4 on cell membrane surface (human, UniProt Q96NY8 32-510)
T1 sequence (looked up): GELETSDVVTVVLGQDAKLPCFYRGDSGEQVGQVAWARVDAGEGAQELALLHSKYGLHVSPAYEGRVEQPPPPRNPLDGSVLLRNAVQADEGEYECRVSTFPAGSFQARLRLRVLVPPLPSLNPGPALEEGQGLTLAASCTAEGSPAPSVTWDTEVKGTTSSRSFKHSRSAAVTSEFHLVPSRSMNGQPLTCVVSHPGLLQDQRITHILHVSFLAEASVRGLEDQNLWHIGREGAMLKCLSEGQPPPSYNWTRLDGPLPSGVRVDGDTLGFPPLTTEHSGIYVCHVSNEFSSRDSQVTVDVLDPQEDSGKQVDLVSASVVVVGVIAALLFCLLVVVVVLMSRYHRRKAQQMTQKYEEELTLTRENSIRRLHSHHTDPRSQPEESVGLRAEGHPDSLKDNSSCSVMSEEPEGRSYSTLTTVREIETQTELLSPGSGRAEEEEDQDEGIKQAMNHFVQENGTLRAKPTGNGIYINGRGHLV

B1: anti-human Nectin-4 ADC 31HZ-TL001 (other, DAR 7.75)
heavy: QVQLVQSGAEVKKPGSSVKVSCKASGYTFTDYWMNWVRLAPGQGLEWIGMIHPSDSETRLNQKFQGRVTLTVDKSTSTAYMELSSLRSEDTAVYYCARWDFRIYYAMDYWGQGTLVTVSS[human IgG1 constant region not printed]
light: DVVITQSPDSLAVSLGERATINCKSSQSLLNTNSQKNYLAWYQQKPGQSPKLLVYFASTRESGVPDRFSGSGSGTDFTLTISSLQAEDVAVYFCQQHYSTPLTFGGGTKVEIKRTVAAPSVFIFPPSDEQLKSGTASVVCLLNNFYPREAKVQWKVDNALQSGNSQESVTEQDSKDSTYSLSSTLTLSKADYEKHKVYACEVTHQGLSSPVTKSFNRGEC
modifications: 0 to 1 TL001 linked by thioether bond to a sulfhydryl group of the light chain; 0 to 4 TL001 linked by thioether bond to sulfhydryl groups of the heavy chain
B2: anti-human Nectin-4 ADC 74HZ-TL001 (other, DAR 7.98)
heavy: QVQLVQSGAEVKKPGSSVKVSCKASGYTFINYWMNWVRQAPGQGLEWIGMIHPSDSATRLNQSFQGRVTLTVDKSTSTAYMELSSLRSEDTAVYYCARWGNFYTVNAWYYFDYWGQGTLVTVSS[human IgG1 constant region not printed]
light: B1 light with V2I, S28T, T32S, S34T, V54F, G106Q, V110L
modifications: TL001 linked by thioether bond to sulfhydryl groups

Molecular target: T1, human Nectin-4 on cell membrane surface
Assay: cell-based or functional assay

Binder	killing activity EC50 on A549-Nectin-4 cells (CCK8) [µg/mL]	killing activity EC50 on MDA-MB-468 cells (CCK8) [µg/mL]	killing activity EC50 on NCI-N87 cells (CCK8) [µg/mL]	killing activity EC50 on T24-Nectin-4 cells (CCK8) [µg/mL]
B1	1.39	1.03	9.38	1.28
B2	1.36	2.28		
